Data taken from paper PMC4336329 (PLoS ONE, 2015).
In all, about 310,000 compounds went through this assay and about 14,000 (4.5%) showed an effect of 50% or more. The effect is printed as a negative number. This is one part of the list.

molecular target: human ether-à-go-go-related gene (hERG) potassium channel (human, UniProt Q12809); assay: primary screen, population patch clamp on CHO cells stably expressing hERG
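Note: peak tail current of the secondary pulse compared with the same well before compound.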

human ether-à-go-go-related gene (hERG) potassium channel, sequence (Q12809 whole entry, looked up): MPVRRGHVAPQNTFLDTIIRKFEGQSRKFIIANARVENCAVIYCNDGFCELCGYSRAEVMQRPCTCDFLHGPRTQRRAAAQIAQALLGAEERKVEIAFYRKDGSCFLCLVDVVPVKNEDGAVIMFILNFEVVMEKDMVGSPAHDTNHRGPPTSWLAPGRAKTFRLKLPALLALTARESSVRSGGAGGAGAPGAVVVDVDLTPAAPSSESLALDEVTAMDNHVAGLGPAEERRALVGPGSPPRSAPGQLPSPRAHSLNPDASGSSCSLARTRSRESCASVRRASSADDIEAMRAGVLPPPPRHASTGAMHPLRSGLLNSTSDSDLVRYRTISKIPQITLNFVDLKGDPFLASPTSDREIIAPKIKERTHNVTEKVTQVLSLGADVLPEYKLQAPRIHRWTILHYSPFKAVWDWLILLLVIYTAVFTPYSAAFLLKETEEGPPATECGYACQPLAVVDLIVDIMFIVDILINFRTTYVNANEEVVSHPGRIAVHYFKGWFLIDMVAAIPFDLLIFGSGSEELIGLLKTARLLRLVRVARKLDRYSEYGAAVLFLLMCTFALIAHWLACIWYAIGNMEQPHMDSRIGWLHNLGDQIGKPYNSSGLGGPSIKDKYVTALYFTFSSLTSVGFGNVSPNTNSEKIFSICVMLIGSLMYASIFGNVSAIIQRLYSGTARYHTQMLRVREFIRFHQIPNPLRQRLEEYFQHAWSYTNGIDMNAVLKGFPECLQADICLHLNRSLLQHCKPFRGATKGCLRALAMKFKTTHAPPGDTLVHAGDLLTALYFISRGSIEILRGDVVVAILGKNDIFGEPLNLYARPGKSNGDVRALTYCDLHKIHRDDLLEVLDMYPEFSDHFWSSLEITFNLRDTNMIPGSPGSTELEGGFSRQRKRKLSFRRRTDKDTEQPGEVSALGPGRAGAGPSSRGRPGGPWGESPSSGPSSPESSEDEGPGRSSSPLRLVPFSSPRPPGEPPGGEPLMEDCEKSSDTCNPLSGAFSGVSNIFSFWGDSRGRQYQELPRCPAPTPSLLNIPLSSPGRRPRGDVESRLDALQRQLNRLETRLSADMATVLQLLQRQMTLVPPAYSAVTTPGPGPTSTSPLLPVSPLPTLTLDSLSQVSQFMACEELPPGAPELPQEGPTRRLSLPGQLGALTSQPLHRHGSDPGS

SMILES	hERG current change (%, negative = inhibition) at 10uM
CN(C)c1ccc(C(CNC(=O)c2cccs2)N(C)C)cc1 (centres unmarked)	3.33%
CCCC(=O)NC(NC1CCS(=O)(=O)C1)C(Cl)(Cl)Cl (centres unmarked)	4.08%
Cc1cccc(N(C(=O)c2snc(C(N)=O)c2N)C(C)C(=O)NCC2CCCO2)c1 (centres unmarked)	27.3%
CN(Cc1ccccc1)C(=O)c1nc[nH]c1C(=O)N1CCN(c2ccccc2)CC1	2.41%
C=CCn1c(Oc2ccccc2F)nc2c1c(=O)n(C)c(=O)n2C	2.59%
CC(C)c1nnc(NC(=O)CSc2nc3ccccc3s2)s1	-0.703%
C/C(Cn1nnc([N+](=O)[O-])n1)=N\NC(=O)c1ccncc1	13.7%
O=C(COC(=O)c1c(Cl)ccc(Cl)c1Cl)NC1CCS(=O)(=O)C1 (centres unmarked)	-17.4%
CCOC(=O)C1CCCN(CC(O)COC(c2ccccc2)c2ccccc2)C1 (centres unmarked)	-79.7%
COC(=O)CSC1=C(C#N)C(c2cccc(F)c2)CC(=O)N1 (centres unmarked)	9.97%
Cc1cnc(C(=O)Nc2nc(-c3ccccc3)cs2)cn1	-5.47%
CC(=N)C1=C(O)CC(c2ccccc2)CC1=O (centres unmarked)	14.8%
COc1ccc([N+](=O)[O-])cc1N1C(=O)c2cccnc2C1=O	9.49%
Cl.O=C(c1ccccc1F)N1CCN(Cc2ccccc2F)CC1	12.2%
Cc1noc(C)c1CSCC(=O)Nc1cc(S(=O)(=O)N2CCOCC2)ccc1OCC(F)(F)F	-33.4%
CCOC(=O)c1[nH]c(C)c(/C(O)=C2\C(=O)C(=O)N(CCN(C)C)C2c2ccco2)c1C (centres unmarked)	10.7%
Cc1ccc2c(c1)c(C1=NC(=S)NC1=O)c(O)n2C	19.4%
O=C(NC1(C(F)(F)F)N=C2SCCN2C1=O)c1ccccc1F (centres unmarked)	19.8%
COc1ccc(C)cc1NC(=O)C(OC(=O)C1CC1)c1ccccc1 (centres unmarked)	-12%
O=C1COc2ccc(C(=O)COC(=O)CCSc3ccccc3)cc2N1	-2.37%
COc1ccc(NS(=O)(=O)c2ccc(NC(=S)NC(=O)/C=C/c3ccccc3)cc2)nn1	-3.33%
CCOC(=O)CCn1nc(-c2ccc(Cl)cc2)cc1N	4.1%

SMILES	hERG current change (%, negative = inhibition) at 10uM
CCn1c(C)nc2cc(C(=O)OC(C(F)(F)C(F)F)C(F)(F)C(F)F)ccc21	-37.7%
COc1ccc(/C=C/C(=O)c2ccccc2)cc1COc1ccc(F)cc1	-0.749%
Cc1cc(C)c(C(=O)CC(=O)c2ccccc2Cl)c(O)c1	8.64%
CCOC(=O)c1[nH]c2cc(OC)c(OC)cc2c1NC(=O)c1nonc1C	8.53%
COc1ccc(CN(C(C)=O)c2cccc(C)c2C)cc1	-1.15%
COc1cccc(CNC(=O)CCC(=O)N2CCOCC2)c1	16.7%
CCCCN(C(=O)Cn1nnc2ccccc21)C(C(=O)NCCOC)c1ccc(OC)cc1OC (centres unmarked)	0.724%
O=C(c1cccc(C(F)(F)F)c1)N1CCCCCC1	-10.2%
O=[N+]([O-])c1cccnc1NCc1cccs1	12.4%
CCN1CCN(Cc2c(O)ccc3c(=O)c(-c4ccc(OC)c(OC)c4)c(C)oc23)CC1	1.96%
Cc1c(Br)c([N+](=O)[O-])nn1CC(=O)N(C)Cc1ccccc1	-20%
O=C(COC(=O)CCc1ccc(S(=O)(=O)N2CCOCC2)cc1)NCc1ccc(Cl)cc1	-16.4%
O=C(CS(=O)(=O)Cc1ccccc1)N1CCN(Cc2ccc3c(c2)OCO3)CC1	-11.6%
Cc1cccc(CC2S/C(=N/N=C/c3ccco3)NC2=O)c1 (centres unmarked)	7.05%
CC1CC(C)CN(C(=O)c2ccc(NS(=O)(=O)c3ccc4[nH]c(=O)[nH]c4c3)cc2)C1 (centres unmarked)	-25.4%
Cc1ccc(-c2c3c(=O)n(C)c(=O)n(C)c3cn2-n2cnnc2)cc1	-23%
COc1ccc(-c2cc(C(=O)N3CCOCC3)c3cc(C)ccc3n2)cc1	-15.5%
CCOP(=O)(OCC)C(NC(=O)c1cccc(C)c1)C(Cl)(Cl)Cl (centres unmarked)	12.3%
COCc1[nH]nc2c1C(c1ccc(F)cc1F)C(C#N)=C(N)O2 (centres unmarked)	6.13%
Cc1cccc(COc2ccccc2/C=N/Nc2ccc([N+](=O)[O-])cc2)c1	-5.78%
CCOC(=O)NC(Nc1ccc(S(N)(=O)=O)cc1)(C(=O)OCC)C(F)(F)F (centres unmarked)	6.76%
CC(C)n1c(/C=C/[C@H](O)C[C@H](O)CC(=O)[O-])c(-c2ccc(F)cc2)c2ccccc21.[Na+]	11.4%
